# PubChem BioAssay AID485344 (National Center for Advancing Translational Sciences (NCATS), 2010)
# The campaign covered roughly 340,000 compounds. About 6,900 (2%) were called active. Cut-off read from the data, not from the text of the source: active = inhibition above about 30%; inactive = below that, where a call was filed. The entries are a selection whose mix differs from that of the whole data set. The source gives no active or inactive call for entries shown without one.
# Target: D(2) dopamine receptor (Homo sapiens) (UniProt P14416)
# Assay: HTS Assay for Allosteric Antagonists of the Human D2 Dopamine Receptor: Primary Screen for Antagonists; note: 0% is about no effect
# Details: HEK293 TREx D2 cells, calcium flux, dopamine EC80; at 10 µM; stronger effect = higher value
# Summary of the method: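 Calcium flux kinetic readout in an inducible HEK293 TREx D2 line plated overnight at 30 C. After 180 s compound exposure, an EC80 dopamine challenge follows with another 180 s kinetic read to detect antagonism.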
# Chain of UniProt P14416 (P14416 whole entry, looked up): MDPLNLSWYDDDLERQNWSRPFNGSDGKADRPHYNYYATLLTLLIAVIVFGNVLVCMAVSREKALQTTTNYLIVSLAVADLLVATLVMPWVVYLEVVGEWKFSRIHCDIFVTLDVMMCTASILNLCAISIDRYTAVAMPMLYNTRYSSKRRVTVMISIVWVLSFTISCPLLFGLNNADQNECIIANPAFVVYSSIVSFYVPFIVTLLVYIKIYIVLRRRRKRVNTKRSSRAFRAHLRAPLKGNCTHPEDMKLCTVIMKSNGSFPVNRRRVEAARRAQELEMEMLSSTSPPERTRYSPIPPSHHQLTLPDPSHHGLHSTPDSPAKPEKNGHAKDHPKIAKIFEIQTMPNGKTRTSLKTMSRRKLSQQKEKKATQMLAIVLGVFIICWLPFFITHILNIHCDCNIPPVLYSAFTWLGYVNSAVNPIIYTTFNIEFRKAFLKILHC
row,Structure (SMILES),inhibition
1,CCc1ccc(C(=O)c2cn(CC(=O)Nc3ccc(F)cc3)c3ccc(OC)cc3c2=O)cc1,17.1%
2,CC(=O)N1CCN(c2csc3ccc(F)cc3c2=O)CC1,-5.9%
3,O=C1CN(C(=O)Cc2ccc(F)cc2)C(c2ccccc2)c2cc(Cl)ccc2N1 (stereo not given),-14.8%
4,COc1ccc(NC(=O)Cn2c(=O)n(C(C)C)c(=O)c3oc4ccccc4c32)cc1Cl,-2.49%
5,CCCN1CCN(CCNC(=O)Nc2ccc(OC)cc2OC)CC1,12.2%
6,O=C(CC1C(=O)N(c2ccccc2)C(=O)N1CCC1=CCCCC1)Nc1ccc(F)cc1 (stereo not given),-21.1%
7,Nc1ccc(-c2nc3ncccc3o2)cc1,active: 32.8%
8,COc1ccc(-c2cc(OC(=O)c3ccc(Cl)cc3)c3c(C)oc(C)c3c(=O)c2)cc1,-8.07%
9,Cc1ccc(C(=O)Nc2cccc(-c3nc4cccnc4s3)c2C)cc1,8.62%
10,Cc1cccc(CN2C(=O)c3ccccc3S(=O)(=O)c3ccc(C(=O)NCCC4=CCCCC4)cc32)c1,-4.05%
11,COc1cc(NC(=O)c2ccc3c(SCC(=O)O)c4c(nc3c2)CCC4)cc(OC)c1OC,active: 35.7%
12,CCOC(=O)C1CCN(C(=O)CCS(=O)(=O)c2cc3c(cc2Cl)NC(=O)CO3)CC1,3.84%
13,Cc1ccc(CSc2ncc(Cl)c(C(=O)NCCc3ccc(S(N)(=O)=O)cc3)n2)cc1,-9.13%
14,Cc1ccc(N(CC(=O)NCc2ccc(Cl)cc2)S(=O)(=O)N(C)C)cc1,13.1%
15,COc1ccc(NC(=O)CSc2nc(-c3ccc(OC)cc3)[nH]c2-c2ccc(OC)cc2)cc1,16.1%
16,COc1ccc(OCC(=O)OCc2cc(=O)n3cc(C)sc3n2)cc1,-1.57%
17,COc1cc(/C=N\NC(=O)c2ccc(C)nc2)ccc1OC(=O)c1ccco1,active: 34.4%
18,COc1ccc(NC(=O)c2cc3nc(-c4ccc(C)c(C)c4)cc(C(F)(F)F)n3n2)cc1,-2.32%
19,COc1ccccc1CNC(=O)c1oc2ccc(S(=O)(=O)N3CCCCC3)cc2c1C,5.33%
20,CCc1ccccc1NC(=O)c1ccc2c(O)c(S(=O)(=O)c3ccccc3)c(=O)[nH]c2c1,-2.03%

row,Structure (SMILES),inhibition
1,CCOc1ccc(NC(=O)CSc2nccn2Cc2ccco2)cc1,-8.63%
2,CCOc1ccc2[nH]c(=O)c(CN(CCO)Cc3nnnn3CCc3ccccc3)cc2c1,active: 38.9%
3,CCOc1ccccc1NC(=O)C(=O)NCCc1sc(-c2cccc(F)c2)nc1C,-1.11%
4,CCC(=O)Oc1ccc(/C=C(\C#N)c2nc3ccccc3[nH]2)cc1OC,11.9%
5,COc1ccc(-c2cc(C(F)(F)F)nc(S(=O)(=O)CCCC(=O)Nc3cccc(O)c3)n2)cc1OC,-6.9%
6,CCc1ccc(NCc2cc3cc4c(cc3n(CC(=O)Nc3ccc(C)cc3)c2=O)OCO4)cc1,-4.36%
7,COc1ccccc1N1CCN(C(=S)Nc2ccccc2)CC1,active: 47.2%
8,CC(=O)c1ccc(NC(=O)CSc2nnc3ccc(-c4ccc(Cl)cc4)nn23)cc1,-28.6%
9,Cc1ccc(Nc2c(-c3cccs3)nc3nc(C)cc(C)n23)cc1,8.49%
10,CCOc1ccc(NC(=O)C2CCCN(S(=O)(=O)c3cccc4nonc34)C2)cc1 (stereo not given),0.549%
11,CCOc1ccc(NC(=O)NCc2c(-n3cccc3)sc3c2CCCC3)cc1,20.5%
12,Cc1oc2ncnc(N3CCCCC3)c2c1C(=O)N1CCN(c2cccc(C(F)(F)F)c2)CC1,4.66%
13,CC(C)Sc1oc(-c2cccs2)nc1S(=O)(=O)c1ccc(Cl)cc1,-4.89%
14,CCc1ccccc1N1C(=O)N(Cc2ccc(C#N)cc2)c2ccccc2S1(=O)=O,3.49%
15,Cc1ccc(CNC(=O)c2ccc(Cn3c(=O)c4ccccc4n(CC(=O)Nc4ccc(C)cc4C)c3=O)cc2)cc1,-7.16%
16,CCOc1ccc(S(=O)(=O)NCCc2sc3nc(-c4ccc(F)cc4)nn3c2C)cc1,-25.2%
17,CCOc1ccc(CCNC(=O)c2cn(CC)c3ccc(S(=O)(=O)N4CCc5ccccc5C4)cc3c2=O)cc1OCC,0.679%
18,c1ccc(CNc2nc3c(-c4ccccc4)nnn3c3ccccc23)cc1,2.79%
19,COc1ccc(SCc2cc(=O)c3cc(Cl)ccc3[nH]2)cc1,-19.5%
20,COc1cccc(NC(=O)C2CCCN(S(=O)(=O)c3c(C)nn(C)c3C)C2)c1 (stereo not given),-25.4%

row,Structure (SMILES),inhibition
1,Cc1cccc(C)c1OCCn1c(C2CC(=O)N(c3cccc(Cl)c3)C2)nc2ccccc21 (stereo not given),1.51%
2,O=C(Cc1ccc(Cl)cc1)Nc1ccc2nn(-c3ccc(Cl)cc3)nc2c1,-7.63%
3,Cc1nc(-c2ccc(F)cc2)c(CC(=O)N(C)CC(=O)Nc2ccc(Br)cc2C)s1,active: 58.5%
4,O=C(NCc1ccc2c(c1)CCN2C(=O)c1ccc(F)cc1)c1cc2ccccc2[nH]1,-9.7%
5,Cc1ccc(-n2ncc(C(=O)NCc3ccccc3C)c2-n2cccc2)cc1,-0.0061%
6,COc1ccccc1CNC(=O)CCC(=O)N1CC2CCCN2c2ccccc21 (stereo not given),5.9%
7,COc1ccc(-c2[nH]c3ccccc3c2SCCNC(=O)c2cc(OC)c(OC)c(OC)c2)cc1,17.1%
8,CCC1CCCCN1C(=O)Cn1c(=O)n(CCCCCC(=O)NCc2ccccc2)c(=O)c2sccc21 (stereo not given),-16%
9,CC(Oc1ccccc1)C(=O)NC1CCN(Cc2ccccc2)CC1 (stereo not given),active: 42.2%
10,COc1cccc(NC(=O)c2ccc3nc(CCc4ccccc4)oc3c2)c1,-5.03%
11,CCCCNc1nc(Oc2ccc(OCC)nn2)nc(N2CCOCC2)n1,-3.89%
12,COc1ccc(Cl)cc1NC(=O)c1c(NCc2ccc(C)o2)sc2c1CCCCC2,2.15%
13,CCCn1c2ccccc2c2cnn(CC(=O)N(C)c3ccc(F)cc3)c(=O)c21,1.29%
14,COc1cccc(CSc2nc3ccccc3c3nc(CCn4c(C)nc5ccccc54)nn23)c1,-0.248%
15,O=C(Cn1cc(C(=O)c2ccco2)c2ccccc21)Nc1ccc(Br)cc1,-12.6%
16,O=C(CSc1ccccc1)N1CCc2c([nH]c3ccccc23)C1c1ccc(F)cc1 (stereo not given),-18%
17,CC1CCN(S(=O)(=O)c2cn(CC(=O)Nc3cccc(C(F)(F)F)c3)c(=O)c3ccccc23)CC1,-4.22%
18,CSc1ncc2c(n1)-c1ccccc1N(Cc1ccc(Cl)cc1)S2(=O)=O,1.54%
19,CCOC(=O)c1cnn(-c2ccc(C(=O)Nc3cc(OC)c(OC)c(OC)c3)cc2)c1N,4.75%
20,COc1cccc(C(=O)Nc2cccc(C(=O)OCc3cc(=O)n4nc(C5CC5)sc4n3)c2)c1,10.8%
